Measurements from the supplement of paper PMC8728848.
This is one part of the list.

Experiments:
Test in all cases: glycan array binding signal (z-score within array); higher = stronger binding
Details in all cases: glycan notation: IUPAC condensed, linker removed
Fuc(a1-2)Gal = molecular target: Fuc(a1-2)Gal
Procedure, shortened: (§1)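 Arrays were curated from the Consortium for Functional Glycomics database, 3228 in total, and kept only where the protein sequence was available. Binding is expressed as a within-array Z-score. This score was averaged across arrays of the same protein sequence at different concentrations or buffers and across linkers, and negative values can be read as non-binding.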

Fuc(a1-2)Gal(b1-3)GalNAc = molecular target: Fuc(a1-2)Gal(b1-3)GalNAc
Procedure, shortened: as §1

[1] = molecular target: Fuc(a1-2)Gal(b1-3)GalNAc(a1-3)[Fuc(a1-2)]Gal(b1-4)Glc
Procedure, shortened: as §1

[2] = molecular target: Fuc(a1-2)Gal(b1-3)GalNAc(a1-3)[Fuc(a1-2)]Gal(b1-4)GlcNAc
Procedure, shortened: as §1

[3] = molecular target: Fuc(a1-2)Gal(b1-3)GalNAc(b1-3)Gal
Procedure, shortened: as §1

[4] = molecular target: Fuc(a1-2)Gal(b1-3)GalNAc(b1-3)Gal(a1-4)Gal(b1-4)Glc
Procedure, shortened: as §1

[5] = molecular target: Fuc(a1-2)Gal(b1-3)GalNAc(b1-4)[Neu5Ac(a2-3)]Gal(b1-4)Glc
Procedure, shortened: as §1

Fuc(a1-2)Gal(b1-3)GlcNAc = molecular target: Fuc(a1-2)Gal(b1-3)GlcNAc
Procedure, shortened: as §1

[6] = molecular target: Fuc(a1-2)Gal(b1-3)GlcNAc(b1-2)Man(a1-3)[Fuc(a1-2)Gal(b1-3)GlcNAc(b1-2)Man(a1-6)]Man(b1-4)GlcNAc(b1-4)GlcNAc
Procedure, shortened: as §1

[7] = molecular target: Fuc(a1-2)Gal(b1-3)GlcNAc(b1-2)Man(a1-3)[Fuc(a1-2)Gal(b1-3)GlcNAc(b1-2)Man(a1-6)]Man(b1-4)GlcNAc(b1-4)[Fuc(a1-6)]GlcNAc
Procedure, shortened: as §1

[8] = molecular target: Fuc(a1-2)Gal(b1-3)GlcNAc(b1-3)Gal(b1-4)Glc
Procedure, shortened: as §1

[9] = molecular target: Fuc(a1-2)Gal(b1-3)GlcNAc(b1-3)GalNAc
Procedure, shortened: as §1

[10] = molecular target: Fuc(a1-2)Gal(b1-3)GlcNAc(b1-3)[Fuc(a1-2)Gal(b1-3)GlcNAc(b1-6)]GalNAc
Procedure, shortened: as §1

[11] = molecular target: Fuc(a1-2)Gal(b1-3)GlcNAc(b1-3)[Gal(b1-4)GlcNAc(b1-6)]Gal(b1-4)Glc
Procedure, shortened: as §1

[12] = molecular target: Fuc(a1-2)Gal(b1-3)GlcNAc(b1-3)[Neu5Ac(a2-6)Gal(b1-4)GlcNAc(b1-6)]Gal(b1-4)Glc
Procedure, shortened: as §1

[13] = molecular target: Fuc(a1-2)Gal(b1-3)GlcNAc6S
Procedure, shortened: as §1

[14] = molecular target: Fuc(a1-2)Gal(b1-3)[Fuc(a1-4)]GlcNAc
Procedure, shortened: as §1

[15] = molecular target: Fuc(a1-2)Gal(b1-3)[Fuc(a1-4)]GlcNAc(b1-2)Man(a1-3)[Fuc(a1-2)Gal(b1-3)[Fuc(a1-4)]GlcNAc(b1-2)Man(a1-3)]Man(b1-4)GlcNAc(b1-4)GlcNAc
Procedure, shortened: as §1

[16] = molecular target: Fuc(a1-2)Gal(b1-3)[Fuc(a1-4)]GlcNAc(b1-2)Man(a1-3)[Fuc(a1-2)Gal(b1-3)[Fuc(a1-4)]GlcNAc(b1-2)Man(a1-6)]Man(b1-4)GlcNAc(b1-4)[Fuc(a1-6)]GlcNAc(b1-4)[Fuc(a1-6)]GlcNAc
Procedure, shortened: as §1

[17] = molecular target: Fuc(a1-2)Gal(b1-3)[Fuc(a1-4)]GlcNAc(b1-3)[Fuc(a1-3)[Gal(b1-4)]GlcNAc(b1-6)]Gal(b1-4)Glc
Procedure, shortened: as §1

[18] = molecular target: Fuc(a1-2)Gal(b1-3)[Fuc(a1-4)]GlcNAc(b1-3)[Gal(b1-4)GlcNAc(b1-6)]Gal(b1-4)Glc
Procedure, shortened: as §1

[19] = molecular target: Fuc(a1-2)Gal(b1-4)Fuc(a1-3)]GlcNAc(b1-2)Man(a1-3)[Fuc(a1-2)Gal(b1-4)[Fuc(a1-3)]GlcNAc(b1-2)Man(a1-6)]Man(b1-4)GlcNAc(b1-4)GlcNAc
Procedure, shortened: as §1

Fuc(a1-2)Gal(b1-4)Glc = molecular target: Fuc(a1-2)Gal(b1-4)Glc
Procedure, shortened: as §1

Fuc(a1-2)Gal(b1-4)Glc6S = molecular target: Fuc(a1-2)Gal(b1-4)Glc6S
Procedure, shortened: as §1

Fuc(a1-2)Gal(b1-4)GlcNAc = molecular target: Fuc(a1-2)Gal(b1-4)GlcNAc
Procedure, shortened: as §1

[20] = molecular target: Fuc(a1-2)Gal(b1-4)GlcNAc(b1-2)Man
Procedure, shortened: as §1

[21] = molecular target: Fuc(a1-2)Gal(b1-4)GlcNAc(b1-2)Man(a1-3)[Fuc(a1-2)Gal(b1-4)GlcNAc(b1-2)Man(a1-6)]Man(b1-4)GlcNAc(b1-4)GlcNAc
Procedure, shortened: as §1

[22] = molecular target: Fuc(a1-2)Gal(b1-4)GlcNAc(b1-2)Man(a1-3)[Fuc(a1-2)Gal(b1-4)GlcNAc(b1-2)Man(a1-6)]Man(b1-4)GlcNAc(b1-4)[Fuc(a1-6)]GlcNAc
Procedure, shortened: as §1

[23] = molecular target: Fuc(a1-2)Gal(b1-4)GlcNAc(b1-2)[Fuc(a1-2)Gal(b1-4)GlcNAc(b1-4)]Man(a1-3)[Fuc(a1-2)Gal(b1-4)GlcNAc(b1-2)Man(a1-6)]Man(b1-4)GlcNAc(b1-4)GlcNAc
Procedure, shortened: as §1

[24] = molecular target: Fuc(a1-2)Gal(b1-4)GlcNAc(b1-3)Gal(b1-4)GlcNAc
Procedure, shortened: as §1

B1: SRA-1 (Homo sapiens), P21757 (protein)
chain: MEQWDHFHNQQEDTDSCSESVKFDARSMTALLPPNPKNSPSLQEKLKSFKAALIALYLLVFAVLIPLIGIVAAQLLKWETKNCSVSSTNANDITQSLTGKGNDSEEEMRFQEVFMEHMSNMEKRIQHILDMEANLMDTEHFQNFSMTTDQRFNDILLQLSTLFSSVQGHGNAIDEISKSLISLNTTLLDLQLNIENLNGKIQENTFKQQEEISKLEERVYNVSAEIMAMKEEQVHLEQEIKGEVKVLNNITNDLRLKDWEHSQTLRNITLIQGPPGPPGEKGDRGPTGESGPRGFPGPIGPPGLKGDRGAIGFPGSRGLPGYAGRPGNSGPKGQKGEKGSGNTLTPFTKVRLVGGSGPHEGRVEILHSGQWGTICDDRWEVRVGQVVCRSLGYPGVQAVHKAAHFGQGTGPIWLNEVFCFGRESSIEECKIRQWGTRACSHSEDAGVTCTL
glycan array binding signal (z-score) (Fuc(a1-2)Gal): 0.252
glycan array binding signal (z-score) (Fuc(a1-2)Gal(b1-3)GalNAc): -0.344
glycan array binding signal (z-score) [1]: -0.464
glycan array binding signal (z-score) [2]: -0.556
glycan array binding signal (z-score) [3]: -0.273
glycan array binding signal (z-score) [4]: -0.38
glycan array binding signal (z-score) [5]: -0.162
glycan array binding signal (z-score) (Fuc(a1-2)Gal(b1-3)GlcNAc): -0.091
glycan array binding signal (z-score) [6]: -0.292
glycan array binding signal (z-score) [7]: 0.217
glycan array binding signal (z-score) [8]: 0.012
glycan array binding signal (z-score) [9]: -0.282
glycan array binding signal (z-score) [10]: 0.179
glycan array binding signal (z-score) [11]: -0.462
glycan array binding signal (z-score) [12]: -0.251
glycan array binding signal (z-score) [13]: 0.358
glycan array binding signal (z-score) [14]: -0.524
glycan array binding signal (z-score) [15]: 0.132
glycan array binding signal (z-score) [16]: 0.064
glycan array binding signal (z-score) [17]: -0.258
glycan array binding signal (z-score) [18]: -0.462
glycan array binding signal (z-score) [19]: -0.082
glycan array binding signal (z-score) (Fuc(a1-2)Gal(b1-4)Glc): -0.37
glycan array binding signal (z-score) (Fuc(a1-2)Gal(b1-4)Glc6S): 0.701
glycan array binding signal (z-score) (Fuc(a1-2)Gal(b1-4)GlcNAc): -0.467
glycan array binding signal (z-score) [20]: 0.604
glycan array binding signal (z-score) [21]: -0.227
glycan array binding signal (z-score) [22]: -0.606
glycan array binding signal (z-score) [23]: -0.168
glycan array binding signal (z-score) [24]: -0.417
